Test results taken from PubChem BioAssay AID463173 (ICCB-Longwood Screening Facility, Harvard Medical School, 2010).
About 1,700 (3.3%) of roughly 52,000 compounds were called active. Cut-off read from the data, not from the text of the source: active = survival mostly below about 52% (no sharp cut-off); inactive = mostly above about 56%. This is one part of the list.

system: Wild type; experiment: S. aureus survival, RN4220 and DeltatarO strains – OD600, teichoic acid synthesis inhibitors, primary screen (AID 463173); details: S. aureus RN4220 wild type/DeltatarO growth, OD600, 18 h, stronger effect = lower value, screened at 18.75 µg/mL (by protocol)

Compound | survival
COc1ccc(/C=C(/C#N)c2nc(-c3ccc(-c4ccccc4)cc3)cs2)cc1 | inactive: 66%
CCN(CCCNC(=O)c1cc2cc3cc(C)ccc3nc2s1)c1cccc(C)c1 | inactive: 75%
O=C(O)CCN1C(=O)c2ccc(Oc3ccc4c(c3)C(=O)N(CCC(=O)O)C4=O)cc2C1=O | inactive: 110%
Cc1ccc(C)c(NC(=O)C(=O)NCCc2csc(-c3ccc(C(F)(F)F)cc3)n2)c1 | inactive: 69%
CCC(C)NC(=O)Cn1c(=O)n(-c2ccc(C)cc2)c(=O)c2ccccc21 (stereo not given) | inactive: 83%
O=C1CC(CSc2nnnn2-c2ccccc2)=NN1 | inactive: 128%
CCOC(=O)Cn1c(=O)cc(-c2ccccc2)c2c(C)nn(C)c21 | inactive: 136%
CCc1ccc(-n2nc(CO)c(C(=O)NCc3ccccn3)n2)cc1 | inactive: 94%
Cc1ccccc1CSc1nc2nc(C)c(Cc3ccccc3)c(C)n2n1 | inactive: 66%
COc1ccc(OC)c(CCNC(=O)c2ccc(CS(=O)Cc3cccc(Cl)c3)o2)c1 (stereo not given) | inactive: 79%
CCc1ccccc1N(CC)C(=O)c1cc2c(s1)-c1ccccc1OC2 | active: 9%
Cc1cc(C)nc(NC(N)=NC(C)c2ccccc2)n1 (stereo not given) | inactive: 97%
Cc1oc2ncnc(N3CCCCC3)c2c1C(=O)NCC1CCN(Cc2ccc(F)cc2)CC1 | inactive: 90%
Cc1nc(-c2ccccc2)sc1-c1ccc(SCC(=O)Nc2ccc(F)cc2F)nn1 | inactive: 30%
CC(Sc1oc(-c2ccco2)nc1S(=O)(=O)c1ccc(Br)cc1)c1ccccc1 (stereo not given) | inactive: 69%
COCCNc1nc(NCc2ccccc2OC)c2cnn(C)c2n1 | inactive: 97%
CCC(CC)c1nn2c(=O)cc(COc3ccc(NC(=O)c4ccc(Cl)cc4)cc3)nc2s1 | inactive: 86%
COc1ccc(-n2ncc(C(=O)N3CCN(c4ccccn4)CC3)c2C2CCN(C(=O)OC(C)(C)C)CC2)cc1 | inactive: 77%
CCCCNc1nc(Oc2ccc(=O)n(-c3ccccc3)n2)nc(N(C)C)n1 | inactive: 87%
O=C(OCc1ccccn1)c1ccc(COc2ccccc2Cl)o1 | inactive: 110%
CN(C(=O)c1nn(C)c2c1COc1ccccc1-2)c1cccc(C(F)(F)F)c1 | inactive: 84%
CCOc1ccccc1NC(=O)C(NS(=O)(=O)c1cccc2nsnc12)c1ccccc1 (stereo not given) | inactive: 90%
Cc1nnc(N2CCN(c3ccccc3F)CC2)c2c1nnn2Cc1ccc(F)cc1 | inactive: 88%

Compound | survival
COCCNC(=O)c1c(NC(=O)Cc2coc3cc(C)ccc23)sc2c1CCCC2 | inactive: 77%
COc1ccc(N2CCN(CCCNC(=O)c3cnn(-c4ccc(F)cc4)c3-n3cccc3)CC2)cc1 | inactive: 77%
CCOC(=O)c1cn(CC(=O)Nc2cccc(Cl)c2C)nn1 | inactive: 86%
COc1ccc(N2CCN(c3nc(-c4ccccc4F)nc4ccccc34)CC2)cc1 | inactive: 92%
O=C(CN(c1cccc(Br)c1)S(=O)(=O)c1ccccc1)N1CCc2ccccc2C1 | inactive: 83%
CCOC(=O)c1c(C)[nH]c(C)c1S(=O)(=O)N1CCC(C(=O)NCc2ccccc2)CC1 | inactive: 55%
Cc1ccc(C)c(OCCSc2nc3ccccc3n2CC(=O)N2CCOCC2)c1 | inactive: 78%
COc1ccc(-c2ccc(NS(=O)(=O)c3ccc(F)c(C(F)(F)F)c3)cc2)nn1 | inactive: 127%
COC(=O)c1c(NC(=O)CCCOc2ccc(C)cc2)sc2c1C(C(=O)OC)CC2 (stereo not given) | active: 1%
CCc1cccc(CC)c1NC(=O)c1cc(S(=O)(=O)N2CCc3ccccc32)cn1C | inactive: 83%
Cc1ccc(CN2CCCn3nc(C(=O)NCCN(C)C)cc3C2=O)cc1 | inactive: 80%
COc1cccc(OCc2nc3ccccc3n2CCOc2ccccc2)c1 | inactive: 74%
Cc1nn2c(=O)cc(COC(=O)c3ccccc3NC(=O)c3ccccc3C)nc2s1 | inactive: 126%
Cc1nc2ccn(Cc3ccco3)c(=O)c2cc1C(=O)N1CCN(c2ccccc2F)CC1 | inactive: 78%
COc1ccc(NC(=O)Cc2coc3cc(C)cc(C)c23)c(OC)c1 | inactive: 88%
COc1ccc2c(c1)c1c(c(=O)n(Cc3ccccc3)c(=O)n1Cc1cc(C)ccc1C)n2C | inactive: 64%
Cc1ccc(S(=O)(=O)N2CCCC(c3nc4c(nnn4Cc4ccc(OC(F)(F)F)cc4)c(=O)[nH]3)C2)cc1 (stereo not given) | inactive: 86%
CCOC(=O)c1ccc2c(c1)N(Cc1cccc([N+](=O)[O-])c1)C(=O)c1ccccc1S2 | inactive: 77%
Cn1nc(-c2ccc(OCC(=O)Nc3ccccc3)cc2)c2ccccc2c1=O | inactive: 75%
O=C(Cn1c(=O)nc(-c2ccccc2)c2cc(Cl)ccc21)NCc1ccccc1 | inactive: 68%
CC(=O)Cn1nnc2sc(-c3ccccc3)cc2c1=O | inactive: 82%
Cc1c(Cl)cccc1Nc1sc(C(=O)c2ccccc2)c(N)c1S(=O)(=O)c1ccccc1 | inactive: 91%
COCCNC(=O)c1cc2n(n1)CCCN(Cc1ccc(C)cc1)C2=O | inactive: 73%

Compound | survival
COC(=O)N1N=C(c2ccccc2)CC1(O)C(F)(F)F (stereo not given) | inactive: 102%
O=c1c2c([nH]c3ccccc13)CCC2 | inactive: 107%
O=C1CC(c2nc3ccccc3n2Cc2c(F)cccc2Cl)CN1c1cccc(C(F)(F)F)c1 (stereo not given) | inactive: 73%
CSc1cccc(N2C(=O)N(Cc3ccc([N+](=O)[O-])cc3)c3ccccc3S2(=O)=O)c1 | inactive: 99%
CCC1C(=O)N=C(SCC(=O)Nc2cccc3ccccc23)NC1=O (stereo not given) | inactive: 97%
CN(Cc1ccccc1)C(=O)c1cc2c(=O)n(C)c3ccccc3c2s1 | inactive: 82%
CCOC(=O)N1CCc2c(sc3c2c(=O)n(Cc2ccccc2)c(=O)n3Cc2c(F)cccc2Cl)C1 | inactive: 74%
O=C(CN1CCN(c2ncccn2)CC1)N(Cc1ccccc1)c1ccc(F)cc1 | inactive: 104%
COc1ccc(CC(=O)Nc2c(C(=O)Nc3ccccc3F)oc3ccccc23)cc1 | inactive: 85%
COc1ccc(NC(=O)CC2C(=O)N(c3ccc(C)cc3)C(=O)N2CCc2ccccc2)cc1 (stereo not given) | inactive: 79%
O=C(N1CCCCC1)C1(c2ccccc2)CCOCC1 | inactive: 103%
Brc1ccc(-c2cc3c(N4CCN(c5ccccc5)CC4)nccn3n2)cc1 | inactive: 151%
Cc1ccccc1NC(=O)c1sc2nc(-c3ccncc3)ccc2c1N | inactive: 78%
O=C(c1cc2ccccc2o1)N1CCCC1 | inactive: 117%
O=C(c1ccccc1)N1CCN(Cc2ccccc2)CC1 | inactive: 91%
O=C(CC1C(=O)N(c2ccc(F)cc2)C(=O)N1Cc1cccnc1)Nc1ccc(F)cc1 (stereo not given) | inactive: 99%
CCCCOc1cccc(C(=O)Nc2cc3nn(-c4ccc(F)cc4)nc3cc2C)c1 | inactive: 79%
CCCN(CCC)CCCNC(=O)Cn1ncc2c3ccccc3n(Cc3ccc(F)cc3)c2c1=O | inactive: 86%
CC1=C(C(=O)Nc2ccccc2C)C(c2ccccc2O)NC(=S)N1 (stereo not given) | inactive: 107%
CCOC(=O)c1ccc(N2C(=O)c3n[nH]c(-c4cccs4)c3C2c2ccc(C)cc2)cc1 (stereo not given) | inactive: 66%
Cc1cc(NCCN)nc2ccccc12 | inactive: 104%
COc1cccc(CNC(=O)CCNS(=O)(=O)c2cccc3nsnc23)c1 | inactive: 124%
Cc1cc2ccccc2n1-c1ccc(C(=O)N2CCCCC2)s1 | inactive: 63%

Compound | survival
Cc1nc(C)c(-c2ccc(SCC(=O)Nc3ccccc3F)nn2)s1 | inactive: 128%
COCCCNC(=O)CCCn1c(=O)c2cccn2c2cccnc21 | inactive: 88%
CCn1cc(S(=O)(=O)c2ccccc2)c(=O)c2cc(C)ccc21 | inactive: 125%
COc1cc(OC)cc(C(=O)Nc2ccc(S(=O)(=O)Nc3cc(C)nc(C)n3)cc2)c1 | inactive: 75%
CCOC(=O)c1[nH]c2ccccc2c1NC(=O)c1ccc(OC(C)C)cc1 | inactive: 75%
COc1ccc(C)cc1NC(=O)CSc1nnc(Cn2nnc3ccccc32)n1C | inactive: 113%
COc1ccc(CCN2CC(C(=O)NCCc3ccc(C)cc3)CC2=O)cc1OC (stereo not given) | inactive: 60%
CCCCn1c(COc2cccc(OC)c2)nc2ccccc21 | inactive: 88%
CC(C)(CC(=O)OCC(=O)Nc1ccc(F)c(Cl)c1)CC1=NS(=O)(=O)c2ccccc2N1 | inactive: 57%
COc1cc(NC(=O)c2cc3c(=O)oc4ccc(C)cc4c3s2)cc(OC)c1OC | inactive: 82%
O=C(CSc1nccn1-c1ccc(Cl)cc1)Nc1nc2ccccc2s1 | inactive: 85%
O=C(NC1CC(=O)N(c2ccc(F)cc2)C1)c1ccc(S(=O)(=O)N2CCCCC2)cc1 (stereo not given) | inactive: 83%
O=c1c2sc3ccccc3c2n(Cc2cccc(F)c2)c(=O)n1Cc1ccccc1 | inactive: 97%
CCOC(=O)Cn1c(=O)n(CC2CCCO2)c2nc(-c3ccccc3OC)nc(C(N)=O)c21 (stereo not given) | inactive: 81%
O=C(NCc1cccs1)c1ccc2c(=O)n3nc(Nc4ccccc4)sc3nc2c1 | inactive: 72%
Cc1cccc2sc(N(Cc3cccnc3)C(=O)CCc3ccccc3)nc12 | inactive: 127%
CCOC(=O)c1ccc(N2C(=O)c3[nH]nc(-c4ccccc4)c3C2c2ccc(CC)cc2)cc1 (stereo not given) | inactive: 89%
CCCn1c(N2CCN(CC(=O)Nc3ccc(Cl)cc3)CC2)nc2ccccc21 | inactive: 118%
COc1ccccc1CNC(=O)C1CCCN(S(=O)(=O)c2ccc3c(c2)oc(=O)n3C)C1 (stereo not given) | inactive: 92%
COc1ccc(-c2cc(C(=O)Nc3c(C(=O)c4ccc(C)cc4)oc4ccccc34)no2)cc1 | inactive: 80%
O=C(c1ccc2c(c1)N(Cc1ccccc1F)C(=O)c1ccccc1S2(=O)=O)N1CCC(Cc2ccccc2)CC1 | inactive: 83%
